Measurements: US20060153833A1 (Genmab, published 2006)

Molecular target: T1, E1 E2 complexes (noncovalently associated heterodimers and disulfide-linked aggregates) from cells expressing … (Hepatitis C virus strain H (genotype 1a), UniProt P27958 192-383; P27958 384-746)
T1 construct: E1 is coprecipitated by the anti-E2 antibodies; also called E2/E1 complexes
Assay: pulse-chase immunoprecipitation, reducing and non-reducing SDS-PAGE

B1: HMAb 503 (antibody, V domains shown)
VH: QVQLQQWGAGLLKPSETLSLTCAVYGGSLSGYFWTWIRQSPGKGLEWIGESNYSGSTRYNPSLKSRVTISVDTSQNQFSLKLSSVTAADTAVYYCARGWAVDGMDVWGQGTTVTVSS
VL: SYELTQPPSVSVSPGQTARITCSGDALPKQYAYWYQQKPGQAPVLVIYKDNERPSGIPERFSGSRSGTTVTLTISGVQAEDEADYYCQSADSSGSSWVFGGGTKLTVL
notes: also called antibody 503; clone 503
binding result: binds
